# Test results from PubChem BioAssay (NCI).
#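 Exposure lasted 48 hours, with cells grown in 96-well plates and compounds tested at five concentrations. GI50 is the concentration that inhibits growth by half.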 Certain results were filed several times, with different values. The list is limited to them. There may be further records. Results that share an entry are repeats (runs, samples, wells, individuals or studies). Marks in square brackets tell the records apart. A, B and so on number the origins entry by entry.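 TGI: concentration producing complete growth inhibition.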
# Legend:
# Test in all cases: inhibition of tumour cell growth, NCI panel, 48 h
# OVCAR-3 ovarian = system: OVCAR-3 ovarian
# EKVX NSCLC = system: EKVX NSCLC
# RXF 393 renal = system: RXF 393 renal
# HS 578T breast = system: HS 578T breast
# SN12C renal = system: SN12C renal
# ACHN renal = system: ACHN renal
# HOP-62 NSCLC = system: HOP-62 NSCLC
# CAKI-1 renal = system: CAKI-1 renal
# HT29 colon = system: HT29 colon
# IGROV1 ovarian = system: IGROV1 ovarian
# NCI-H23 lung = system: NCI-H23 lung
# HCC-2998 colon = system: HCC-2998 colon
# MDA-N = system: MDA-N
# A549 NSCLC = system: A549 NSCLC
# NCI-H226 lung = system: NCI-H226 lung
# SF-295 CNS = system: SF-295 CNS
# OVCAR-5 ovarian = system: OVCAR-5 ovarian
# UACC-62 melanoma = system: UACC-62 melanoma
# M14 melanoma = system: M14 melanoma
# PC-3 prostate = system: PC-3 prostate
# SF-539 CNS = system: SF-539 CNS
# SK-MEL-5 melanoma = system: SK-MEL-5 melanoma
# SK-MEL-28 melanoma = system: SK-MEL-28 melanoma
# KM12 colon = system: KM12 colon
# DU-145 prostate = system: DU-145 prostate
# NCI-H460 lung = system: NCI-H460 lung
# SNB-75 CNS = system: SNB-75 CNS
# A498 renal = system: A498 renal
# SK-OV-3 ovarian = system: SK-OV-3 ovarian
# 786-0 renal = system: 786-0 renal
# NCI-H522 lung = system: NCI-H522 lung
# UACC-257 melanoma = system: UACC-257 melanoma
# U251 CNS = system: U251 CNS
# MDA-MB-435 = system: MDA-MB-435
# MDA-MB-231 breast = system: MDA-MB-231 breast
# SF-268 CNS = system: SF-268 CNS
# BT-549 breast = system: BT-549 breast
# COLO 205 colon = system: COLO 205 colon
smiles,measurement,setting,value
CC(=O)OCC1OC(Sc2nc(-c3ccc(Cl)cc3)c(C#N)c(=O)n2C2OC(COC(C)=O)C(OC(C)=O)C(OC(C)=O)C2OC(C)=O)C(OC(C)=O)C(OC(C)=O)C1OC(C)=O (stereo not given),GI50,OVCAR-3 ovarian,"> 100 µM [sample A, 1 test] and 4.85 µM [sample B, 1 test]"
same,GI50,EKVX NSCLC,"> 100 µM [sample A, 1 test] and 4.5 µM [sample B, mean of 2 tests]"
same,GI50,RXF 393 renal,"> 100 µM [sample A, 1 test] and 2.57 µM [sample B, mean of 2 tests]"
same,TGI,RXF 393 renal,"> 100 µM [sample A, 1 test] and 8.92 µM [sample B, mean of 2 tests]"
same,GI50,HS 578T breast,"> 100 µM [sample A, 1 test] and 3.14 µM [sample B, 1 test]"
same,GI50,SN12C renal,"> 100 µM [sample A, 1 test] and 2.36 µM [sample B, 1 test]"
same,TGI,SN12C renal,"> 100 µM [sample A, 1 test] and 5.3 µM [sample B, 1 test]"
same,TGI,ACHN renal,"> 100 µM [sample A, 1 test] and 7.36 µM [sample B, mean of 2 tests]"
same,GI50,HOP-62 NSCLC,"> 100 µM [sample A, 1 test] and 3.57 µM [sample B, 1 test]"
same,TGI,CAKI-1 renal,"> 100 µM [sample A, 1 test] and 5.78 µM [sample B, mean of 2 tests]"
same,TGI,HT29 colon,"> 100 µM [sample A, 1 test] and 3.12 µM [sample B, 1 test]"
same,GI50,IGROV1 ovarian,"> 100 µM [sample A, 1 test] and 8.47 µM [sample B, mean of 2 tests]"
same,GI50,NCI-H23 lung,"> 100 µM [sample A, 1 test] and 6.08 µM [sample B, mean of 2 tests]"
same,TGI,HCC-2998 colon,"> 100 µM [sample A, 1 test] and 2.17 µM [sample B, mean of 2 tests]"
same,GI50,MDA-N,"> 100 µM [sample A, 1 test] and 3.75 µM [sample B, mean of 2 tests]"
same,GI50,A549 NSCLC,"> 100 µM [sample A, 1 test] and 3.44 µM [sample B, 1 test]"
same,GI50,NCI-H226 lung,"> 100 µM [sample A, 1 test] and 3.2 µM [sample B, mean of 2 tests]"
same,GI50,SF-295 CNS,"> 100 µM [sample A, 1 test] and 2.03 µM [sample B, mean of 2 tests]"
same,TGI,SF-295 CNS,"> 100 µM [sample A, 1 test] and 4.64 µM [sample B, mean of 2 tests]"
same,GI50,OVCAR-5 ovarian,"> 100 µM [sample A, 1 test] and 4.9 µM [sample B, mean of 2 tests]"
same,GI50,UACC-62 melanoma,"> 100 µM [sample A, 1 test] and 1.95 µM [sample B, mean of 2 tests]"
same,TGI,UACC-62 melanoma,"> 100 µM [sample A, 1 test] and 4.66 µM [sample B, mean of 2 tests]"
same,GI50,M14 melanoma,"> 100 µM [sample A, 1 test] and 2.72 µM [sample B, mean of 2 tests]"
same,GI50,PC-3 prostate,"> 100 µM [sample A, 1 test] and 3.48 µM [sample B, 1 test]"
same,GI50,SF-539 CNS,"> 100 µM [sample A, 1 test] and 1.58 µM [sample B, 1 test]"
same,TGI,SF-539 CNS,"> 100 µM [sample A, 1 test] and 3.35 µM [sample B, 1 test]"
same,GI50,SK-MEL-5 melanoma,"> 100 µM [sample A, 1 test] and 3.43 µM [sample B, 1 test]"
same,TGI,SK-MEL-28 melanoma,"> 100 µM [sample A, 1 test] and 6.13 µM [sample B, mean of 2 tests]"
same,GI50,KM12 colon,"> 100 µM [sample A, 1 test] and 4.09 µM [sample B, mean of 2 tests]"
same,GI50,DU-145 prostate,"> 100 µM [sample A, 1 test] and 4.04 µM [sample B, mean of 2 tests]"
same,GI50,NCI-H460 lung,"> 100 µM [sample A, 1 test] and 765 nM [sample B, mean of 2 tests]"
same,TGI,NCI-H460 lung,"> 100 µM [sample A, 1 test] and 2.19 µM [sample B, mean of 2 tests]"
same,GI50,SNB-75 CNS,"> 100 µM [sample A, 1 test] and 2.48 µM [sample B, mean of 2 tests]"
same,TGI,SNB-75 CNS,"> 100 µM [sample A, 1 test] and 9.51 µM [sample B, mean of 2 tests]"
same,GI50,A498 renal,"> 100 µM [sample A, 1 test] and 1.95 µM [sample B, 1 test]"
same,TGI,A498 renal,"> 100 µM [sample A, 1 test] and 4.26 µM [sample B, 1 test]"
same,GI50,SK-OV-3 ovarian,"> 100 µM [sample A, 1 test] and 3.21 µM [sample B, mean of 2 tests]"
same,GI50,786-0 renal,"> 100 µM [sample A, 1 test] and 1.81 µM [sample B, mean of 2 tests]"
same,TGI,786-0 renal,"> 100 µM [sample A, 1 test] and 4.19 µM [sample B, mean of 2 tests]"
same,TGI,NCI-H522 lung,"78.1 µM [sample A, 1 test] and 4.29 µM [sample B, 1 test]"
same,GI50,UACC-257 melanoma,"> 100 µM [sample A, 1 test] and 3.83 µM [sample B, mean of 2 tests]"
same,GI50,U251 CNS,"> 100 µM [sample A, 1 test] and 2.5 µM [sample B, 1 test]"
same,GI50,MDA-MB-435,"> 100 µM [sample A, 1 test] and 6.55 µM [sample B, mean of 2 tests]"
same,GI50,MDA-MB-231 breast,"> 100 µM [sample A, 1 test] and 2.02 µM [sample B, mean of 2 tests]"
same,TGI,MDA-MB-231 breast,"> 100 µM [sample A, 1 test] and 9.04 µM [sample B, mean of 2 tests]"
same,GI50,SF-268 CNS,"> 100 µM [sample A, 1 test] and 2.25 µM [sample B, mean of 2 tests]"
same,TGI,SF-268 CNS,"> 100 µM [sample A, 1 test] and 7.9 µM [sample B, mean of 2 tests]"
same,TGI,BT-549 breast,"> 100 µM [sample A, 1 test] and 8.91 µM [sample B, mean of 2 tests]"
CC(C)c1cc(C(=O)N2Cc3ccc(CN4CCN(C)CC4)cc3C2)c(O)cc1O,TGI,CAKI-1 renal,"2.05 µM [sample A, mean of 2 tests] and 23.9 µM [sample B, mean of 2 tests]"
same,GI50,IGROV1 ovarian,"31.9 nM [sample A, mean of 2 tests] and 330 nM [sample B, mean of 2 tests]"
same,TGI,IGROV1 ovarian,"1.49 µM [sample A, mean of 2 tests] and 16.5 µM [sample B, mean of 2 tests]"
same,TGI,HCC-2998 colon,"881 nM [sample A, mean of 2 tests] and 14.6 µM [sample B, mean of 2 tests]"
same,TGI,COLO 205 colon,"13.3 µM [sample A, mean of 2 tests] and 921 nM [sample B, mean of 2 tests]"
same,TGI,KM12 colon,"180 nM [sample A, mean of 2 tests] and 2.21 µM [sample B, mean of 2 tests]"
same,GI50,SF-268 CNS,"216 nM [sample A, mean of 2 tests] and 3.51 µM [sample B, mean of 2 tests]"
